# In PubChem BioAssay AID686978 (National Center for Advancing Translational Sciences (NCATS), 2013):
# “And” between values parts separate entries of the source, which are not always exact repeats. Equal entries are not always repeated. The whole screen tested about 420,000 compounds, of which about 64,000 (15%) were called active. The shares of active, inactive and inconclusive entries below differ from those in the screen. The call rests on the fitted dose curve; in most records, active means well fitted inhibition curve with a large enough effect; inconclusive means small, poorly fitted or top-dose-only effect; inactive means flat fitted curve, though single readings scatter. Potencies of inconclusive entries are doubtful fits and often do not repeat.
# Assay: qHTS for Inhibitors of human tyrosyl-DNA phosphodiesterase 1 (TDP1): qHTS in cells in absence of CPT; further: nearly all actives have a fitted effect of over 55% in size
# Conditions: DT40 Tdp1-/- hTDP1 cells, no CPT, ATP luminescence, 48 h; activity change, negative = growth inhibition: at 46.2 µM (top of the series) unless noted
# Summary of the method: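 A cellular qHTS used chicken DT40 cells lacking endogenous Tdp1 but carrying stably transfected human TDP1. Compounds were applied without camptothecin, and cell growth kinetics were judged by ATP-dependent luminescence after ≥48 hr.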
# On the % scale 0 is the no-effect control and ±100 the full control effect; potency means the concentration at half of the fitted maximal effect; tags describe the fitted curve by direction and shape.
SMILES,Potency,"activity change, negative = growth inhibition"
COC(CNC(=O)c1cnn2c(C)c(Cc3ccccc3)c(C)nc12)OC,active: 16.4 µM,
Cc1ccccc1-c1nc(CN2CCCC(C(=O)NCc3ccc(Cl)cc3)C2)c(C)o1 (configuration not stated),"inconclusive: 3.66 µM [inhibitor, full curve]",
Cc1ccccc1CNC(=O)C(=O)NCCC1CCCCN1S(=O)(=O)c1ccccc1 (configuration not stated),active: 18.4 µM,
CNC(=O)C1CCC(Cn2c(=O)c3sccc3n(Cc3cc(C)ccc3C)c2=O)CC1 (configuration not stated),"inconclusive: 3.66 µM [inhibitor, full curve]",
Cc1ccc(Cn2nnc3c(=O)n(CC(=O)N4CCCc5ccccc54)cnc32)cc1,"inconclusive: 23.1 µM [inhibitor, single point]",
CCCc1ccc(S(=O)(=O)N(C)S(=O)(=O)c2ccc(F)cc2)cc1,,inactive: 0.353%
Cc1ccc(S(=O)(=O)CCC(=O)OCC(=O)N2CCc3ccccc32)cc1,,inactive: 0.304%
COc1ccc(NC(=O)CSc2nc3ccccc3c(=O)n2CCCN2CCOCC2)c(OC)c1,"inconclusive: 29.1 µM [inhibitor, single point]",
NC1=NC(=O)/C(=C/c2c(OS(=O)(=O)c3ccc(Cl)cc3)ccc3ccccc23)S1,,inactive: 2.32%
CCN(CC)S(=O)(=O)c1ccc(Cl)c(NC(=O)COC(=O)c2c(C)noc2C)c1,active: 20.6 µM,
COC(=O)c1[nH]c2ccccc2c1NC(=O)CN1CCCCCC1,"inconclusive: 20.6 µM [inhibitor, single point]",
CCCNC(=S)NCc1ccc(Cl)cc1,"inconclusive: 23.1 µM [inhibitor, single point]",
CCc1ccc(S(=O)(=O)c2cn(CC(=O)Nc3ccc(F)c(Cl)c3)c3ccccc3c2=O)cc1,"inconclusive: 29.1 µM [inhibitor, single point]",
Cc1cc(/C=C2\C=Cc3ccccc32)cc(C)c1N,"inconclusive: 22.4 µM [inhibitor, single point]",
COc1ccc(C2C(=O)N(C3CCCCC3)CC(=O)N2CCc2ccc(C)cc2)cc1OC (configuration not stated),"inconclusive: 13 µM [inhibitor, partial curve]",
CCN(CC)CCCNC(=S)N(CCO)Cc1cc2cc3c(cc2[nH]c1=O)OCO3,,inactive: -11.1%
CN1C[C@@H]2[C@@H]3C(=O)N(C)C(=O)[C@@H]3[C@](Cc3ccccc3)(C1=O)N2C(=O)c1ccc(F)cc1,,inactive: -23.5%
CC(NC(=O)c1cc(S(=O)(=O)N(C)C)ccc1Cl)C1CC2CCC1C2 (configuration not stated),active: 9.2 µM,
O=C(COC(=O)c1ccccc1Nc1ccccc1F)c1ccccc1,"inconclusive: 25.9 µM [inhibitor, partial curve]",
CCc1ccc(N2CC(C(=O)OCC(=O)Nc3ccc(C#N)cc3)CC2=O)cc1 (configuration not stated),,inactive: -5.54%
O=C(c1ccccc1)c1sc(N2CCOCC2)nc1-c1ccccc1,"inconclusive: 29.1 µM [inhibitor, single point]",
O=C(NCc1ccccc1)C(c1ccccc1F)n1c(=O)c(-c2ccccc2)nc2ccccc21 (configuration not stated),"inconclusive: 20.6 µM [inhibitor, single point]",
CCc1ccccc1NC(=O)C1CCCN1C(=O)NCc1ccccc1 (configuration not stated),,inactive: -3.86%
CCOc1cc(C(=O)N(C)c2ccccc2)cc(OCC)c1OCC,"inconclusive: 29.1 µM [inhibitor, single point]",

SMILES,Potency,"activity change, negative = growth inhibition"
Cc1ccc2cc(CCNC(=O)c3ccc4c(c3)OCO4)c(=O)[nH]c2c1C,active: 14.6 µM,
Cc1ccc2nc(CN3CCN(C(=O)Nc4ccc(F)cc4)CC3)oc2c1,"inconclusive: 16.4 µM [inhibitor, single point]",
Clc1ccc(OCCCCN2CCc3ccccc3C2)cc1,,inactive: 0.974%
Cc1ccc(C(=O)Nc2cccnc2)cc1S(=O)(=O)N1CCCCC1,"inconclusive: 29.1 µM [inhibitor, single point]",
O=C1[C@H]2[C@@H](c3ccc(C(F)(F)F)cc3)N[C@]3(CCCN(CC4CCCCC4)C3=O)[C@H]2C(=O)N1Cc1ccccc1,active: 23.1 µM,
O=C(Cn1c(=O)sc2ccccc21)NCCOc1ccccc1F,,inactive: -42.6%
COc1ccc(S(=O)(=O)N2CCCC2CNC(=O)C(=O)NCc2ccccn2)cc1 (configuration not stated),,inactive: -7.68%
Cc1cc(=O)oc2c3c(cc(OCC(=O)Nc4ccc(CCO)cc4)c12)OC(C)(C)CC3,"inconclusive: 29.1 µM [inhibitor, single point]",
NC(=O)c1ccsc1NC(=O)COC(=O)c1ccccc1F,,inactive: -24.1%
CCCN(CCC)Cc1cc2ccccc2c2c1COC2,"inconclusive: 18.4 µM [inhibitor, single point]",
O=C1C=C(c2ccc(O)cc2)C[C@@H](c2ccc3c(c2)OCO3)C1,"inconclusive: 18.4 µM [inhibitor, single point]",
O=[N+]([O-])c1ccccc1/C=N\N1CCN(c2ccccc2)CC1,"inconclusive: 29.1 µM [inhibitor, single point]",
CC(CCC(=O)Nc1nncs1)C(=O)O (configuration not stated),,inactive: 16.2%
COc1ccc(NC(=O)CCc2c(C)nc3c(c2C)c(=O)n(C)c(=O)n3C)c(OC)c1,"inconclusive: 13 µM [inhibitor, partial curve, poor fit]",
N/C(=N\OC(=O)c1ccccc1)c1cccnc1,,inactive: 7.91%
Cn1cccc1C1Nc2ccccc2NC2=C1C(=O)CC(C)(C)C2 (configuration not stated),"inconclusive: 16.4 µM [inhibitor, partial curve, poor fit]",
CC(C)CN(CC(C)C)S(=O)(=O)N1CCC(C(=O)NCCc2ccc(Cl)cc2)CC1,"inconclusive: 29.1 µM [inhibitor, single point]",
O=C(NC(=S)NCC1CCCO1)c1ccc(Br)o1 (configuration not stated),,inactive: -4.26%
Nc1ccc(Cl)c(S(=O)(=O)Nc2cccc(Cl)c2)c1,,inactive: 8.88%
C/C(=N\NC(=O)c1ccc(-c2ccccc2)cc1)C1C(=O)c2ccccc2C1=O,active: 20.6 µM,
O=C(NCCCN1CCCC1=O)c1ccccc1OCc1ccc(Cl)cc1Cl,"inconclusive: 20.6 µM [inhibitor, single point]",
CCC1Nc2ncnc(N3CCN(c4ccccc4)CC3)c2N(Cc2ccc(C)cc2)C1=O (configuration not stated),"inconclusive: 16.4 µM [inhibitor, single point]",
COC(=O)C1=CN(c2ccc(OC)cc2)C=C(C(=O)OC)C1c1ccc([N+](=O)[O-])cc1,"inconclusive: 29.1 µM [inhibitor, single point]",
C/C(=N\Nc1ccc(S(N)(=O)=O)cc1[N+](=O)[O-])c1cccs1,,inactive: -0.0475%

SMILES,Potency,"activity change, negative = growth inhibition"
COc1ccc(/C(C)=N/NC(=O)C2C3CCCCC32)c(OC)c1 (configuration not stated),,inactive: -19%
COCCNc1ncnc2ccc(-c3ccoc3)cc12,"inconclusive: 25.9 µM [inhibitor, single point]",
CCCS(=O)(=O)N1CCc2ccc(NC(=O)C3CCCO3)cc2C1 (configuration not stated),"inconclusive: 13 µM [inhibitor, single point]",
O=S(=O)(c1cccc(COc2ccc(Cl)cc2Cl)c1)N1CCOCC1,"inconclusive: 29.1 µM [inhibitor, single point]",
Cc1cc(NC(=O)C2CCN(S(=O)(=O)c3c(C)noc3C)CC2)ccc1Br,"inconclusive: 20.6 µM [inhibitor, partial curve] and inconclusive: 29.1 µM [inhibitor, single point]",
COc1ccc(S(=O)(=O)Oc2c(OC)cc(C(=S)N3CCOCC3)cc2OC)cc1,,inactive: 0.299%
CCOC(=O)C1=C(C)NC(C)=C(C(=O)OCC)C1c1ccncc1,"inconclusive: 29.1 µM [inhibitor, single point]",
O=C1c2ccccc2C(=O)c2cc(NC(=O)C3CC3)ccc21,"inconclusive: 29.1 µM [inhibitor, single point]",
CCCN1CCN(CCCNC(=O)c2ccc3nc(N4CCC(C)CC4)sc3c2)CC1,"inconclusive: 25.9 µM [inhibitor, single point]",
C=CCn1c(SC)nc2sc3c(c2c1=O)CCc1ccccc1-3,"inconclusive: 29.1 µM [inhibitor, single point]",
CC1=C(C(=O)Nc2cccnc2)C(c2ccc(F)cc2)n2nc(-c3cccc(C)c3)nc2N1 (configuration not stated),"inconclusive: 25.9 µM [inhibitor, single point]",
CC(=O)c1cnc(Nc2cccc(C)c2)s1,,inactive: 2.43%
O=C(CN1CCSC1=NCc1ccccc1)c1ccc(Cl)c(Cl)c1,"inconclusive: 29.1 µM [inhibitor, single point]",
CCOC(=O)c1sc(-c2cccc(C(F)(F)F)c2)nc1O,active: 20.6 µM,
Cc1cccc(-c2cc(C(=O)NCc3ccccn3)c3ccccc3n2)c1,active: 13 µM,
CCOc1ccc(-c2cn3c(n2)sc2cc(C(=O)NCCCN4CCCCCC4)ccc23)cc1,active: 6.51 µM,
COc1ccc(Nc2nc(C(=O)NCc3ccco3)cs2)cc1,"inconclusive: 29.1 µM [inhibitor, single point]",
S=c1[nH]nc(-c2cccs2)n1Cc1ccccc1,,inactive: -22.2%
CN(C(=O)CSc1nnc(-c2ccc(C(C)(C)C)cc2)n1C)C1CCS(=O)(=O)C1 (configuration not stated),,inactive: -18.3%
O=[N+]([O-])c1ccc2c(c1)Cc1cc(F)ccc1-2,"inconclusive: 14.6 µM [inhibitor, partial curve]",
c1ccc2c(c1)[nH]c1nc(SCCN3CCOCC3)nnc12,"inconclusive: 29.1 µM [inhibitor, single point]",
CCc1nnc2n1N=C(c1cccc([N+](=O)[O-])c1)CS2,,inactive: -12.7%
CCOC(=O)c1c(NC(=O)CS(=O)(=O)c2cn(CC)c3ccccc23)sc2c1CCCCC2,"inconclusive: 25.9 µM [inhibitor, single point]",
CCN(CC)C(=O)[C@H]1C[C@H](CC(=O)NC/C=C(\C)CCC=C(C)C)C(=O)N2CCc3c([nH]c4ccc(Cl)cc34)[C@]12C,"inconclusive: 20.6 µM [inhibitor, single point]",
